# From the supplement of paper PMC3334620
# Whole data set: some 33,000 sequences, median “E-score (-0.5 to 0.5)” near -0.021, cut for the highest 2% near 0.32. The list shows a part of the results.
# Target: T1, Zap1 (UniProt P47043)
# T1 sequence: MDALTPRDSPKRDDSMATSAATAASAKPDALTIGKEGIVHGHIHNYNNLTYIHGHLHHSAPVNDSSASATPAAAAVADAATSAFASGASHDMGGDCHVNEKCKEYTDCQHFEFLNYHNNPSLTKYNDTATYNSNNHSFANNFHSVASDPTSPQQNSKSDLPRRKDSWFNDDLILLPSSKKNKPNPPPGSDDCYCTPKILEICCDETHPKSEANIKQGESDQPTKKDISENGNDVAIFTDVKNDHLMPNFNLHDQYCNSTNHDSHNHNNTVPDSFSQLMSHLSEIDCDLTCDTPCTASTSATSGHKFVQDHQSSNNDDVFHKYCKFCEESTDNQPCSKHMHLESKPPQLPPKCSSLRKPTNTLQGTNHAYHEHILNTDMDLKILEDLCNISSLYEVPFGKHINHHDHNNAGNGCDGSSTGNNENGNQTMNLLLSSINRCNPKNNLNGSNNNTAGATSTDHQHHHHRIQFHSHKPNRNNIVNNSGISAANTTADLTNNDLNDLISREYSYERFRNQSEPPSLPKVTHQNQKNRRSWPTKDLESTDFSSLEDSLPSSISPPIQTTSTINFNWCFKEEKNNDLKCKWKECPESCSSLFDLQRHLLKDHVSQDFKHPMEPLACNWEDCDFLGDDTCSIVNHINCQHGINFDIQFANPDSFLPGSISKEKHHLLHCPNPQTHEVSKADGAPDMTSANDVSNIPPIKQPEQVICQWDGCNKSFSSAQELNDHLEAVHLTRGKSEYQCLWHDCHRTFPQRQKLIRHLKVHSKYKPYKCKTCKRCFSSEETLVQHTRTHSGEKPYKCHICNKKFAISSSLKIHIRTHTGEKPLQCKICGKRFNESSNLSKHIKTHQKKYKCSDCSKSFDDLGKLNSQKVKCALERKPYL
# Experiment: PBM E-score (8-mer binding enrichment) (E-score (-0.5 to 0.5)); higher = stronger / more preferred TF binding; most listed sequences are background and not binding sites
# Conditions: protein concentration: 200 nM; construct: GST-full length
# Protocol: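 Universal 'all 10-mer' protein binding microarrays (Agilent AMADID 015681) probed with GST-tagged S. cerevisiae TFs (full-length or DBD) made by in vitro transcription/translation (PURExpress), about 100-200 nM. Bound TF was detected with fluorescent anti-GST. Each ungapped 8-mer (which stands for itself and its reverse complement) is scored by the PBM enrichment score (E-score), a modified Wilcoxon-Mann-Whitney statistic from -0.5 to +0.5, computed with the Universal PBM Analysis Suite. Scale: above 0.35 generally sequence-specific binding.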
row,Sequence,PBM E-score
1,ATTACGAA,0.196
2,CCCGACAG,-0.0441
3,ACCCCAGC,0.238
4,CGGCATAG,-0.0218
5,CCCATCAG,0.034
6,TATTTTAA,0.172
7,AGGCCGGC,-0.0951
8,CCCGTTAG,-0.0312
9,ATATGAAT,0.0691
10,TCTCAAGA,-0.0555
11,CGTATGGC,0.00486
12,GTCTTGGA,-0.181
13,GGCCCGGA,0.0567
14,AATAGAGC,-0.04
15,CCGCGCCC,-0.223
16,AAGAGTAC,0.0671
17,CGAGGTCA,0.357
18,GCTCCCGA,-0.288
19,CAAAATCA,0.133
20,CGGTGTAG,-0.128
21,ATAGTACA,0.0914
22,AGGGAAGG,-0.134
23,TAAATCTA,0.13
24,AGCTGCGC,-0.287
25,CCATTCTC,0.111

row,Sequence,PBM E-score
1,ACTTGCGC,-0.159
2,ACCACTTC,-0.0476
3,AAGCATCA,0.00653
4,AACGCAAT,-0.0036
5,CGATACTC,-0.185
6,CCGTGAGG,0.194
7,CCCAGGCA,-0.0923
8,AGACGTAC,-0.0429
9,AACCTCTC,0.349
10,AACGGCCG,0.0514
11,ACACCTAT,0.00134
12,TGTTAGAA,-0.00513
13,GTAACTTA,0.195
14,GGTTTCAC,0.049
15,CATCCCGA,-0.151
16,GCCTCTCA,-0.212
17,GTATAAAA,0.247
18,GGCTGGGA,-0.121
19,TCGTTAGA,-0.126
20,CTGTTGGC,-0.234
21,ACGAGTGA,-0.0794
22,AGTTCTAT,-0.0731
23,ATGCGGAG,-0.206
24,ACAACATG,0.165
25,AGTGACCA,0.247

row,Sequence,PBM E-score
1,GTGAACAC,-0.134
2,ATATATTA,0.195
3,GGCGCGAA,-0.0784
4,AGTAAGTG,-0.186
5,TCTTAGCA,-0.138
6,CGCGCGAC,0.0813
7,ACACGCAC,-0.0916
8,TCCGAACA,0.107
9,AAAGGGGA,-0.127
10,ACACTGTG,-0.0575
11,CAGAAGGG,0.00395
12,CCGCCAGA,0.0525
13,ATCCGCCC,-0.0928
14,GACACACA,0.028
15,ACGCCACG,-0.166
16,CCCATGCC,-0.0491
17,ACGGTCAC,0.218
18,CACGCAAC,0.189
19,AACACCTA,0.0163
20,CAGCAGCC,-0.128
21,CGTACCAC,0.0803
22,GCTACCCC,0.173
23,CCCACGAA,0.142
24,CTTAGGAC,-0.136
25,TACTAGCA,0.0424

row,Sequence,PBM E-score
1,AGTGTTTG,0.0503
2,TCCAGTAA,-0.0676
3,AGCTACAC,0.0323
4,CTTCTCGC,-0.203
5,CGGCTGAC,-0.193
6,GATACAGA,0.00203
7,CGGAGCCG,-0.0517
8,ACGAATCG,-0.171
9,CGGTTGCA,-0.0132
10,AGCGAACG,-0.299
11,CGTTTCTA,-0.012
12,ATTTCGCC,0.0493
13,GATACCTA,0.2
14,ATCATGAG,0.223
15,CATGCCAG,0.029
16,CGCTTAGA,-0.197
17,GTTCTCTA,-0.0503
18,GAAGGTGC,0.0253
19,AAACCCTT,0.272
20,CATCGCCA,-0.129
21,GATATCTA,0.108
22,ACGATGTC,-0.253
23,AGCGTTAT,-0.0138
24,CCAAGATA,-0.0163
25,AACTGGCC,-0.126

row,Sequence,PBM E-score
1,TCGATCGA,-0.0303
2,ACATTTAG,-0.16
3,AATCCTGG,-0.12
4,GATAGGTA,0.236
5,GCTCGCGA,0.147
6,CGCCGTGC,-0.0953
7,GTCACATA,0.0519
8,AACCGATC,-0.0219
9,CTCCGGCC,-0.295
10,CACACACC,-0.00084
11,CATCTCAC,-0.0113
12,CTCTCTCA,-0.0745
13,ACATCGTG,-0.128
14,AAGGATTG,0.0414
15,AGCACCAA,-0.0512
16,AAGTTTGT,0.109
17,CCATCCGC,0.00042
18,GCCTTACA,-0.141
19,CGGATCAC,0.0116
20,TATACGGA,0.0543
21,CCCTTTAA,0.286
22,AGACAGCC,-0.193
23,CCACCGTC,-0.24
24,TATGCTAA,0.172
25,AAGTTCTC,-0.103

row,Sequence,PBM E-score
1,AGTAAGCG,-0.0345
2,AAGTACCG,0.134
3,CACGCCTG,-0.265
4,CTGAACGA,0.0438
5,ATGCCGTA,0.0795
6,CGCATTGC,-0.121
7,ATCGAAGA,0.0214
8,GCCCCCAC,-0.222
9,CTCCTCTC,-0.249
10,TTCCACAA,0.101
11,TACAGCCA,-0.0777
12,CGTAATAA,0.0644
13,ACGAGGAC,-0.0791
14,CGCACTAA,-0.0584
15,CGTATCGC,-0.0418
16,CCTCAAGG,0.262
17,TGGCGTAA,-0.00392
18,AGGCGTGA,-0.156
19,CAAGGCAG,-0.162
20,AAAGAGGC,-0.135
21,ATGCAGGC,-0.229
22,CGATCCAC,0.00013
23,ATTCCACC,0.0323
24,AAGGGAAT,-0.127
25,ACTGACAC,-0.0765

row,Sequence,PBM E-score
1,GAGCCGAA,0.0882
2,GATAAGCC,-0.248
3,CCGCTCCA,-0.179
4,ACCCACCG,0.233
5,GTAATCAC,0.123
6,AGCGCACA,-0.114
7,CCGATCAG,-0.169
8,TACCCAGA,0.265
9,CACGCGTG,0.185
10,ATCGGGAA,-0.0546
11,CGTAGTTA,0.177
12,AACCGTAC,0.163
13,CCCCGTTC,-0.141
14,ACGTTAAT,0.115
15,CACCGAAC,0.0464
16,ATTCCTGG,-0.0883
17,GCGGCCAA,-0.00658
18,GAAGGGGA,-0.0649
19,ATTACTAG,-0.024
20,ACATGGGA,-0.123
21,GGCTTGTA,-0.0979
22,CCCGTAAA,0.118
